From ChEMBL document CHEMBL4888484, “Replenishing the malaria drug discovery pipeline: Screening and hit evaluation of the MMV Hit Generation Library 1 (HGL1) against asexual blood stage Plasmodium falciparum ,using a nano luciferase reporter read-out” (2022)
Screen size: about 150,000 compounds; about 540 (0.36%) showed an effect of 50% or more. The list shows a part of the results.

These compounds were tested on Plasmodium falciparum (assay: Primary screen in NF54 nanoGlo assay, in single point, at 2uM, 72h; a lower Z score goes with more inhibition). Details: timepoint 72 hour.
Format: functional, Erythrocyte

SMILES	% Inhibition	Z score
Cc1ccc(-n2nc(C(=O)N(C)c3ccccn3)c3c2CCC3)c(C)c1	-9%	1.15
O=C(Cc1ccc(Cl)cn1)N1CCNCCC12CCC2	-12%	1.95
COc1ccc2c(C)nc(N3CCC(C(=O)N[C@H]4CCCc5ccccc54)CC3)nc2c1	-7%	1.33
CCC(CC)(CC)S(=O)(=O)Cc1nnc2n1CCOC2	1%	-0.09
COCCc1nc(CO[C@H]2CCCN(C(=O)C3CCC3)C2)no1	-6%	0.88
O=C(c1cnn(C2CCCCC2)c1)N(CC(F)(F)F)C1CC1	-12%	1.53
Cc1cc(NC(=O)NC[C@](C)(O)C(C)C)no1	-1%	0.19
CC(C)CNC(=O)c1cccc(Nc2c(Oc3ccc4c(c3)OCO4)cnn(C)c2=O)c1	3%	-0.43
Cc1ccc(C(=O)N2CCN(S(=O)(=O)c3cc4c(cc3C)NC(=O)[C@H](C)O4)CC2)cc1	1%	-0.14
Cc1noc(C)c1CN(C)C(=O)Nc1nncs1	-2%	0.31
COc1ccc(N2CCN(C(=O)Cn3c(Nc4ccc(F)c(C)c4)nc(C)cc3=O)CC2)cc1	6%	-0.9
COc1ccc(N2C(=O)[C@@H]3CCCN3[C@H]2c2ccc(C(C)C)cc2)cc1Cl	-3%	0.4
CC(=O)Nc1ccc(Br)c(C(=O)NCCc2nnc3ccccn23)n1	4%	-0.55
CCN(CCOc1ccc(Br)cc1)C(=O)c1cc(COC(C)(C)C)on1	-15%	1.39
Cc1ccc(Nc2nn(CC(=O)NCc3ccc(Cl)cc3)c(N)c2S(=O)(=O)c2ccccc2)cc1	-7%	0.86
Clc1ccccc1-c1cc(CN[C@H]2CCCOC2)no1	-7%	1.19
Cc1ocnc1CNC(=O)NC1CCCCC1	-1%	0.07
CC(c1ccccc1)n1cnc2c1c(=O)n(CC1CCCO1)c(=O)n2-c1ccccc1 (stereo not drawn)	-9%	1.27
OC(CN1CCCCC1Cn1cncn1)c1ccc(F)cc1 (stereo not drawn)	-4%	0.64
N#Cc1ccc(-c2nc(-c3ccc4c(c3)ncn4CCN3CCCC3)no2)cc1	-10%	1.66
CC(C)C(NC(=O)NC1C2CCOC2C1(C)C)c1ccccn1 (stereo not drawn)	2%	-0.45

SMILES	% Inhibition	Z score
O=C(Cc1ccsc1)NCCn1ccc(-c2cnccn2)n1	10%	-1.29
C#Cc1cccc(N(C)C(=O)C2CCCCC2C(F)(F)F)c1 (stereo not drawn)	9%	-1.77
O=C(CCc1nnc(-c2cc3ccccc3o2)o1)N1CCCCCC1	-15%	1.55
CCCN(CC(F)(F)F)C(=O)c1csc(NC(C)=O)n1	-12%	1.47
CN(C[C@H]1COCCO1)c1nc(N)nc2ccc(C(=O)O)cc12	-3%	0.24
Cc1nnc(NCC2CCOC(C(C)C)C2)o1 (stereo not drawn)	-10%	1.86
C[C@@H](C(=O)Nc1ccc(Cl)cc1F)N1CCC(NS(=O)(=O)c2cccs2)CC1	25%	-2.38
O=C(NCc1ccccc1)c1ccc(N2CCCc3ccccc32)s1	-5%	0.55
COc1cncc(C(=O)N2CC(C)(C)[C@@H]2C2CC2)n1	5%	-0.55
Cn1ccnc1[C@H](O)c1cc(C(C)(C)C)c(O)c(C(C)(C)C)c1	-8%	1.42
CCOC(=O)C(Cc1ccncc1)(NC(C)=O)C(=O)OCC	-7%	1.12
CNC(=O)COc1c2c(cc3c1C(=O)N(C)CC3)OCO2	-17%	2.2
CC(C)Cn1cncc1CN(C)Cc1cnccn1	-3%	0.39
O=C(Cc1ccc(Cl)cc1Cl)N(Cc1ccco1)[C@H]1CCS(=O)(=O)C1	-6%	0.73
Cc1ccccc1C(=O)NCC(=O)N1CC[C@H](C2CCOCC2)C1	-10%	1.08
CC(C)c1nnc2ccc(NS(=O)(=O)c3ccc4c(c3)N(C)CCC4)cn12	-9%	1.07
Cc1c(CN2CCC[C@H](N(CCN3CCCC3)C(=O)C3CCC3)C2)cnn1C	-13%	1.75
NC1CC2CC(C(=O)NCC3(C(F)(F)F)CCCC3)CC12 (stereo not drawn)	-3%	0.44
O=C(c1cccc(-c2ccn[nH]2)c1)N1CCN(C/C=C/c2ccccc2)CC1	6%	-0.79
Cc1cc(NC(=O)NCc2ccc(F)cc2)on1	2%	-0.25
COc1ccc2c(c1)-c1onc(C(=O)NCc3cc(F)cc(F)c3)c1CC2	-14%	1.53

SMILES	% Inhibition	Z score
Cc1ccsc1C(=O)N1CCn2c(nnc2[C@@H]2CCCCN2S(C)(=O)=O)C1	-1%	0.12
CCc1nnc(CO[C@H]2CCCc3c[nH]nc32)o1	-8%	1.08
Cn1nc(-c2ccccc2)c(CN(Cc2ccccc2)C[C@H](O)COC(C)(C)C)c1Oc1ccccc1	-5%	0.94
Cc1oc2ccn(Cc3cccc(F)c3)c(=O)c2c1C(=O)N(C)Cc1ccccc1	11%	-1.66
O=C(c1cnccn1)N1CCOc2ccc(N3CCOCC3)cc2C1	-5%	0.99
Cn1nncc1NC(=O)[C@@H]1C[C@]1(C)c1ccccc1	2%	-0.33
O=C(NCCn1nccn1)c1ccoc1	-7%	1.05
CCNc1nc(C)cc(NCCNC(=O)c2ccc(OC)c(OC)c2)n1	-9%	1.05
CN1CC[C@H](CN(C)C(=O)c2ccc(-c3ccc4cc[nH]c(=O)c4c3)cc2)C1	-6%	0.98
Cn1nncc1CNC(=O)C[C@H]1COc2ccccc2O1	4%	-0.72
CN1c2ccc(F)cc2N(CCNC(=O)C(C)(C)Oc2ccc(Cl)cc2)S1(=O)=O	15%	-1.97
CN(C)[C@@H](CNC(=O)c1ccoc1)c1ccc2c(c1)CCO2	-12%	1.79
CC(C)c1sc(NC(=O)C2CC(=O)N(C)C2c2cccnc2)nc1-c1ccccc1 (stereo not drawn)	-5%	0.69
O=C(C[C@H](c1ccc(Cl)c(Cl)c1)c1c[nH]c2ccccc12)NC(c1ccccc1)c1ccccc1	5%	-0.69
COc1ccc(CC(=O)N2CCC[C@H]2c2cc(C(C)C)no2)cc1OC	14%	-1.91
Cc1c(Cl)ccc2c1NC(=O)[C@]21N2CCC[C@H]2[C@@H](C(=O)c2ccc3ccccc3c2)[C@]12C(=O)Nc1ccccc12	2%	-0.19
CC(=O)N1CC(OCC(=O)Nc2nc(-c3cccc(-n4cnnn4)c3)cs2)C1	1%	-0.18
c1ccc(CN2Cc3ccccc3C[C@H]2c2nnc3n2CCOCC3)cc1	-4%	0.57
O=C(COc1ccc2c(c1)OCO2)Nc1nnc(CCCc2ccccc2)s1	-3%	0.4
O=C(Nc1ccc(=O)n(Cc2ccc(Cl)c(Cl)c2)c1)c1cc(O)nc2ccccc12	2%	-0.24
CCc1nccn1CCC(=O)NCCn1cnc(C)c1C	1%	-0.06

SMILES	% Inhibition	Z score
O=C(c1ccc(C(F)(F)F)[nH]1)N(CCO)C1CC1	-2%	0.39
C[C@H]1CCCN(c2nc(-c3ccccn3)nc3ccccc23)C1	96%	-9.05
CN(Cc1cc(Br)cn1C)c1ccc(C#N)nc1	-8%	0.88
Nc1nnc(CNC(=O)C[C@@H]2C=CCC2)s1	1%	-0.18
COc1cc(C)c(C(C)NC(=O)N2C[C@H](OC)[C@H](OC)C2)cc1OC (stereo partly drawn)	10%	-1.24
CN(C)c1nccc(CNC(=O)c2cccc(-n3cncn3)c2)n1	12%	-1.4
CC(=O)c1ccc(N2CCCN(CC(C)C)CC2)nc1	-18%	1.65
Cc1nc(C)c(CNC(=O)Nc2cccs2)s1	2%	-0.32
Cn1nc(C(C)(C)C)c2c1NC(=O)C[C@@H]2c1ccccc1Cn1cccn1	0%	-0.03
CCN(Cc1ccc2c(c1)CCO2)[C@H]1CCNC1=O	5%	-0.89
CC(C)(Cc1cccc(Cl)c1)C(=O)NCCS(C)(=O)=O	-2%	0.24
Cc1nc(N2CCC(O)(Cn3ccnn3)CC2)c(Cl)cc1C#N	-2%	0.22
O=C(NCc1ccncc1)[C@]1(F)CCCN(S(=O)(=O)c2ccc3c(c2)CCC3)C1	-20%	1.76
Cn1cc(C2C[S+]([O-])CCN2Cc2csc3ccccc23)cn1 (stereo not drawn)	-1%	0.27
O=C([C@H]1CCCO1)N1CCN(c2ccc3cn[nH]c3c2)C(=O)C1	-4%	0.7
CCc1noc(CN(CC)Cc2noc(C3CCCC3)n2)n1	-17%	1.6
Cc1cnc2c(c1)N(C(=O)c1cccc(N3CCCC3=O)c1)CCO2	0%	-0.01
CCN(CC)C(=O)CC[C@@H]1CNC(=O)[C@@H]2C[C@H](NC(=O)c3ccco3)CN12	14%	-1.64
CCc1nc(COc2cccnc2C)cs1	-9%	1.23
CC(=O)c1cccc(S(=O)(=O)Oc2ccc3c(c2)ncn3C)c1	-21%	4.06
CCC(CC)NC(=O)c1nnc2n1CCCC[C@H]2C1CCOCC1	18%	-2.23
